Whole data set: some 33,000 sequences, median “E-score (dimensionless, -0.5 to 0.5)” near -0.058, cut for the highest 2% near 0.35. The list shows a part of the results.
Each sequence was assayed on MvaT (assay: PBM 8-mer E-score (mean of HK and ME arrays) (E-score (dimensionless, -0.5 to 0.5)); higher = stronger relative binding preference; most listed sequences are background and not binding sites).
Method in brief: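 Reported values are rank-based E-scores, taken as the mean of two universal arrays and parsed with a custom script. Each 8-mer score falls between -0.5 and 0.5. The arrays, ME and HK, were double-stranded 60-mers with a constant 25-mer primer region and a variable 35-mer region covering all 8-mers. They were probed, by an earlier protocol, with full-length P. aeruginosa MvaT carrying an N-terminal glutathione S-transferase fusion.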

Row | Sequence | PBM 8-mer E-score
1 | ATCCCTCC | -0.246
2 | TAGCTTGA | 0.068
3 | TAGTGCGA | 0.178
4 | CCCTCGCG | -0.291
5 | GACGAAGA | -0.134
6 | ATAATTGA | 0.338
7 | GAGATTAC | 0.135
8 | CGCACGGA | -0.204
9 | TCGCACCA | -0.145
10 | GCGGCCAC | -0.244
11 | CGGTCGCC | -0.265
12 | CTACACCC | -0.0475
13 | CGACCGTC | -0.199
14 | ACAACCGA | 0.0543
15 | ATTATGCC | 0.219
16 | CAGACATG | -0.187
17 | AGCTACCC | -0.217
18 | AAACCTCG | 0.0214
19 | ACAGTCCT | 0.0332
20 | ATCCTCAC | -0.146
21 | ATTGAAGA | 0.139
22 | AATTCACT | 0.0569
23 | AGCGCGCG | -0.184
24 | GCTCGCTA | -0.0743
25 | AGTACCAT | -0.000649

Row | Sequence | PBM 8-mer E-score
26 | AGTGAGAA | -0.0424
27 | TGGAATAA | 0.312
28 | ATAGGAGG | -0.217
29 | TAATACTA | 0.37
30 | ACTGACTG | -0.0633
31 | CCTAATGC | -0.142
32 | ACGGAGCC | -0.0764
33 | AGGCGTAC | -0.147
34 | AACGGACA | -0.037
35 | CTGATAAC | 0.136
36 | ATCTAAAA | 0.233
37 | ACCCGAAT | 0.059
38 | AATTTTTC | 0.14
39 | CGCACTCC | -0.32
40 | CGTTCGCC | -0.251
41 | CAGGGGAA | -0.161
42 | GAACCGCC | -0.207
43 | TCCCCGGA | -0.26
44 | CTAGTTTC | 0.0423
45 | CGTAAGGC | -0.053
46 | TCCTCGAA | -0.00625
47 | GAAAATTC | 0.0774
48 | GACTTAGC | -0.145
49 | ACTTGTAG | 0.105
50 | ACCTCGGC | -0.225

Row | Sequence | PBM 8-mer E-score
51 | ACAGTGCC | -0.02
52 | CACAATCA | 0.0803
53 | GGATACAC | -0.0125
54 | AGACGCAT | -0.0791
55 | CCATAAAG | -0.0677
56 | ATCTTGCC | 0.0286
57 | ATCCGCAC | -0.144
58 | AAACTGAT | 0.145
59 | GCTAACAA | 0.0687
60 | GGCGTGCA | -0.107
61 | AAGTCTTA | 0.253
62 | GTAACAAC | 0.198
63 | AACCAGTA | -0.00423
64 | GTGCATGA | -0.0301
65 | ACCATAGA | -0.0175
66 | CTCATCGC | -0.123
67 | CGTCGATC | -0.238
68 | CTAACAAA | 0.255
69 | TACACACA | 0.153
70 | GCCGTCTA | -0.085
71 | CATGTTGA | 0.0607
72 | GCATAGTA | 0.14
73 | AAGACGTG | -0.235
74 | AGATTGAT | -0.0181
75 | ATCCCTTA | -0.0281

Row | Sequence | PBM 8-mer E-score
76 | TCTTCAAA | 0.166
77 | CCATGCTA | -0.155
78 | ATCTGTCG | -0.0673
79 | AGGCACGG | -0.223
80 | CACACCTG | -0.143
81 | ATAATGAG | 0.313
82 | GCCTACCA | -0.174
83 | CTCAGTTC | -0.229
84 | GCGACATA | -0.0623
85 | AGGGTACC | -0.343
86 | ATGATCGA | 0.0867
87 | ACGGATCC | -0.241
88 | CAATGTGC | -0.0728
89 | GATATGCA | 0.0935
90 | AATTCACC | 0.113
91 | GATATCCC | -0.0645
92 | AAGATGGC | -0.0248
93 | GACGTTAC | 0.0636
94 | GTCTGGAA | -0.164
95 | AAGGAGCG | -0.181
96 | AGTAGAAA | 0.0666
97 | CGATGTTA | 0.174
98 | CCTGTGCG | -0.126
99 | CAACTTAA | 0.31
100 | CGGGGAAA | 0.104

Row | Sequence | PBM 8-mer E-score
101 | TGCCATAA | 0.0258
102 | GAAGTAAC | 0.178
103 | CACTTACC | -0.106
104 | GTGTGATA | 0.0906
105 | AGGTTTAT | 0.142
106 | TACCCTAA | 0.0529
107 | GTGCAACA | -0.096
108 | CCGCAGAA | -0.0417
109 | ATGACCCG | -0.0983
110 | GCATACGA | 0.0206
111 | AAGCGTGC | -0.254
112 | TCTTTGCA | 0.0664
113 | CATGTAGC | 0.134
114 | CGTTTTCC | 0.027
115 | GCCACCAC | 0.00975
116 | CTCAACCC | -0.11
117 | CACTTGCC | -0.194
118 | CATGACCC | -0.0432
119 | CTCAGGTC | -0.165
120 | GGAACAGA | -0.0246
121 | CTGCCTAA | -0.0257
122 | ATTTATGG | 0.204
123 | ACTTGGCA | -0.0156
124 | CGTAGCAG | -0.106
125 | GGACTTCA | 0.0589

Row | Sequence | PBM 8-mer E-score
126 | ACTACAAG | 0.116
127 | ACTTCGCG | 0.0619
128 | CGACGCAC | -0.14
129 | GATGGACC | -0.232
130 | AGCCTATG | -0.0968
131 | GTTCTCAA | 0.0528
132 | GACATGAA | 0.166
133 | CGCTTTCA | -0.1
134 | CGCGCACG | -0.134
135 | CTACAAGA | -0.09
136 | CGTCTGTC | -0.0927
137 | AATACTCG | 0.125
138 | AACTATAA | 0.382
139 | TAAGCCTA | -0.0915
140 | CTTCTAAC | 0.0486
141 | CAGCTCCG | -0.305
142 | CTCTAACC | -0.139
143 | AAGGTATA | 0.152
144 | ATCCGCGA | 0.0327
145 | CACCCACC | -0.151
146 | CCCCAGAA | -0.23
147 | TAAGCGCA | 0.14
148 | ACCAATGG | -0.0993
149 | ACTTCCCT | -0.00654
150 | CAGGCGTA | -0.114

Row | Sequence | PBM 8-mer E-score
151 | TAAGTTGA | 0.29
152 | CCCAGAGC | -0.207
153 | GGCATACA | 0.0623
154 | ACAGTCAC | -0.204
155 | GGTTCACA | -0.00819
156 | GAGTGCCC | -0.187
157 | AGAGCTCT | -0.156
158 | AGCCCGAG | -0.164
159 | CGGCCAGC | -0.228
160 | GGCGATGA | -0.16
161 | ACCAGCAC | -0.0925
162 | CCAAGCCG | -0.322
163 | AATTGTCG | 0.185
164 | CCTCGAAA | -0.0711
165 | AAGGAGTA | -0.154
166 | CGACGTGC | -0.214
167 | ATCGTCTA | -0.0142
168 | CGAACTTA | 0.229
169 | AGTCGACA | 0.0665
170 | CTTAACTC | 0.0392
171 | TATGGCCA | -0.0429
172 | ACCATGCG | -0.128
